Assay [1] concerns the target T1, recombinant human RON SEMA and PSI domains (human, UniProt Q04912 25-571).
T1 construct: domain: SEMA+PSI; Commercial protein (R&D Systems); also called rhRON SEMA+PSI; hRON SEMA+PSI
The experiment in a line: SPR, purified Ab captured on anti-human IgG Fc, 25 C.

Assay [2] addresses T1, recombinant human RON SEMA and PSI …. The experiment in a line: SPR, purified Ab captured on anti-human IgG Fc, 37 C. The procedure:
(§1) Goat anti-human IgG Fc (Jackson ImmunoResearch, Catalog No. 109-005-098) was immobilized on carboxymethylated dextran CM4 sensor chips (Biacore) by amine coupling (Biacore) using a standard coupling protocol according to the vendor's instructions. The analyses were performed at 37° C. using PBS (Invitrogen) containing 0.05% surfactant P20 (Biacore) as running buffer.
(§2) The antibodies were captured in individual flow cells at a flow rate of 60 μl/minute. Injection time was varied for each antibody to yield an Rₘₐₓ between 30 and 60 RU. Buffer or rhRON SEMA+PSI diluted in running buffer was injected sequentially over a reference surface (no antibody captured) and the active surface (antibody to be tested) for 300 seconds at 60 μl/minute. The dissociation phase was monitored for up to 1200 seconds. The surface was then regenerated with two 60 second injections of Glycine pH 2.25 (made from Glycine pH 2.0 (Biacore) and pH 2.5 (Biacore)) at 60 μl/minute. For the initial screening, only one or two concentrations of rhRON SEMA+PSI were tested, typically 10.0 and 2.5 nM (results are summarized in Table 20).
The binding affinities and kinetics of certain purified monoclonal antibodies were also determined. To further characterize certain antibodies, the surface plasmon resonance experiments described above were conducted using concentrations of rhRON SEMA+PSI between 0.3125 nM and 10.0 nM (a 2-fold serial dilution).

Assay [3] has the same target. The experiment in a line: SPR, Ab captured on anti-human IgG Fc, 37 C, screening. The protocol: as §1, §2
Kinetic parameters were determined using the kinetic function of the BIAevaluation software (Biacore) with double reference subtraction. Kinetic parameters for each antibody, kₐ (association rate constant), kd (dissociation rate constant) and KD (equilibrium dissociation constant) were determined. Certain monoclonal antibodies were screened using cell culture media supernatant containing secreted antibody, and kinetic values of the monoclonal antibodies on rhRON SEMA+PSI at 37° C. are summarized in Table 20.
A general note: In SPR one partner is held on a chip, and binding of the other changes the refractive index at the surface.

From US20120027773A1 (AVEO PHARMACEUTICALS, published 2012) come the findings set out here.

B1: Sh29B06-1 (antibody, human IgG1, kappa)
heavy: EVQLQESGPSLVKPSQTLSLTCSVTGDSITSGYWNWIRKFPGNKLEYMGYISYSGKTYYNPSLKSRISITRDTSKNHYYLQLISVTAEDTATYYCARSKYDYAMDYWGQGTSVTVSSASTKGPSVFPLAPSSKSTSGGTAALGCLVKDYFPEPVTVSWNSGALTSGVHTFPAVLQSSGLYSLSSVVTVPSSSLGTQTYICNVNHKPSNTKVDKRV[letters of human IgG1 Fc left out]
light: DIVLTQSPASLAVSLGQRATISCRASEIVDNFGISFMNWFQQKPGQPPKLLIYAASNQGSGVPARFSGSGSGTDFSLNIHPVEEDDTAMYFCQQSKEVPPTFGGGTKLEIKRTVAAPSVFIFPPSDEQLKSGTASVVCLLNNFYPREAKVQWKVDNALQSGNSQESVTEQDSKDSTYSLSSTLTLSKADYEKHKVYACEVTHQGLSSPVTKSFNRGEC
notes: Chimeric: mouse variable regions, human IgG1/kappa; also called Chimeric 29B06
For the molecule B1, in assay [1], the dissociation constant (Kd) (usually a measure of binding affinity in units of concentration) came to 0.36 nM; the dissociation rate constant (koff) (in general, the rate constant with which the complex falls apart) was found to be 0.0002 s⁻¹; the kon (in general, the rate constant with which the complex forms) came out at 530000 M⁻¹ s⁻¹. Moreover, in assay [2], the Kd was 0.86 nM, the off-rate (koff) worked out at 0.0007 s⁻¹ and the kon came to 820000 M⁻¹ s⁻¹. Further, in assay [3], the Kd is 1.1 nM, the koff came out at 0.00076 s⁻¹ and the association rate constant (kon) was 670000 M⁻¹ s⁻¹.
